# Test results reported in PubChem BioAssay AID1347073 (National Center for Advancing Translational Sciences (NCATS), 2019).
# The campaign covered roughly 45,000 compounds. About 200 (0.44%) were called active. About 7% were inconclusive and are not listed. Calls follow the shape of the dose curve; as a rule, active = well fitted activation curve with a large enough effect; inconclusive = small, poorly fitted or top-dose-only effect; inactive = no such curve, though single readings can be large or run the other way. The list shows a part of the results.
# Assay: qHTS of TDP-43 Inhibitors: NCGC Sytravon Library Screen; also: 0% is about no effect; nearly all actives have a fitted effect of over 55% in size
# Conditions: yeast TDP-43 toxicity rescue, BacTiter-Glo growth, 24 h; series mostly up to 46.1 µM; growth rescue (activation): at the top concentration
# In short: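 TDP-43-expressing yeast, pregrown in raffinose, seeded at OD600 0.02 in galactose medium with compound for 24 hr at 30 deg C. Growth read by BacTiter-Glo luminescence, so rescue of toxicity appears as activation.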
row,Structure (SMILES),growth rescue (activation)
1,COC(=O)c1cc([N+](=O)[O-])c(-n2ccnc2)c([N+](=O)[O-])c1,inactive: 21.4%
2,COc1ccc(C2(C#N)CCC(=O)N2c2ccccc2)cc1 (configuration not stated),inactive: 7.63%
3,CC(OC(=O)Cn1cc(C(F)(F)F)ccc1=O)C(=O)N(C)c1ccccc1 (configuration not stated),inactive: 13.9%
4,CC(C)OC(=O)c1ccc(NC(=S)NC(=O)c2cncc(Br)c2)cc1,inactive: 2.27%
5,O=C(Nc1ccc(Cl)c([N+](=O)[O-])c1)c1ccncc1,inactive: 4.89%
6,Cn1c(Nc2ccc(Cl)cc2)cc(=O)n(C)c1=O,inactive: 4.2%
7,Cc1ccc2nc(NCc3ccccc3)c(C=NCc3cccnc3)c(=O)n2c1,inactive: -1.72%
8,CCSc1nc2ccccc2n1C(=O)c1ccc(S(=O)(=O)N2CCCCCC2)cc1,inactive: 20.6%
9,Cc1ncc(CN2CCCC(C(=O)Nc3ccc(-c4cccc(F)c4)cc3)C2)s1 (configuration not stated),inactive: -6.7%
10,O=C(CS(=O)(=O)Cc1ccccc1)N1CCc2ccccc2C1,inactive: 19.3%
11,Cc1cc(=O)oc2cc(NC(=O)c3cccc(S(=O)(=O)N(C)C)c3)ccc12,inactive: -11.7%
12,Fc1ccc(-c2csc(=S)[nH]2)cc1,inactive: 21%
13,O=C(Nc1ccccc1N1CCCC1)c1cccc(Cl)c1Cl,inactive: -1.8%
14,O=C(Nc1cccc(OC(F)(F)F)c1)C1Cc2c(-c3ccccc3Oc3ccccc3)ccnc2O1 (configuration not stated),inactive: 3.93%
15,Cc1cccc(Oc2nc3ccccn3c(=O)c2/C=C(\C#N)C(=O)NC2CCS(=O)(=O)C2)c1 (configuration not stated),inactive: 6.39%
16,COc1ccc(C2=CSC3=NCCN23)cc1Cl,inactive: 12.7%
17,C=CCn1c(O)c(N=Nc2ccccc2C)c2ccccc21,inactive: 4.7%
18,CCc1nc2ccc(C(=O)N(CC)CCN(C)C)cn2c1N(C)CCCc1ccccc1,inactive: 7.7%
19,C[C@]12CCC3C(CC[C@H]4CC(O)CC[C@]34C)C1CC/C2=N/O (some centres not stated),inactive: -20.4%
20,CC(C)N1CCC(N2CCN(C3CCCCC3)CC2CCO)CC1 (configuration not stated),inactive: 0.591%
21,Cc1nn(C)c(Cl)c1C(N)=O,inactive: 2.93%
22,COc1ccccc1NC(=O)NC1(C(=O)N2CCN(C)CC2)CCCCC1,inactive: 4.85%

row,Structure (SMILES),growth rescue (activation)
1,O=C(CN1N=C(c2ccccc2)CCC1=O)NCCCN1CCc2ccccc2C1,inactive: 1.99%
2,COCCNC(=O)C1(C)CCN(C(=O)c2sc(-c3ccccc3)nc2C)C1 (configuration not stated),inactive: -0.772%
3,Cc1cc(CNC(=O)COc2ccc(C)c(C)c2)c2ccccc2n1,inactive: 17.2%
4,C=C(C)Cn1c(CCNC(=O)c2ccco2)nc2ccccc21,inactive: -23.7%
5,COc1ccc(Cc2nc3c4cnn(-c5ccccc5F)c4ncn3n2)cc1,inactive: 18.2%
6,COc1cc(C)nc(NC(=S)N(C)C(=O)c2ccccc2)n1,inactive: -0.257%
7,Cc1ccccc1C1C(C#N)=C2N=C(N)c3ccccc3N2C2=C1C(=O)CCC2 (configuration not stated),inactive: 5.44%
8,CCOC(=O)c1[nH]c2cc3c(cc2c1NC(=O)CN1CC(C)CC(C)C1)OCO3 (configuration not stated),inactive: -2.42%
9,CN(CCO)c1ccc(-c2n[nH]c(=O)c3ccccc23)cc1[N+](=O)[O-],inactive: -33.7%
10,Cc1nc(NC(=O)CSc2nnc(-c3ccc4c(c3)OCO4)o2)c(Cl)cc1Cl,inactive: 25.4%
11,COc1cc(Cc2ccc(N)c(OC)c2)ccc1N,inactive: -5.12%
12,CCn1c2ccccc2c2nnc(SCN3C(=O)c4ccccc4C3=O)nc21,inactive: 4.05%
13,CNC(=O)NC(=O)CSc1nc2sccc2c(=O)n1-c1ccccc1,inactive: -15.4%
14,COc1ccc(C(=O)NC2CCN(CC(=O)NCc3ccccc3F)CC2)cc1,inactive: -13%
15,CSCCC(NC(=O)c1ccccc1Br)C(=O)N1CCC(C)CC1 (configuration not stated),inactive: 3.13%
16,O=C(CN(C(=O)CCC(=O)Nc1nccs1)c1ccccc1F)NCCc1ccccc1,inactive: 0.767%
17,CCOC(=O)CN1C(=O)NC2(CCCc3ccccc32)C1=O (configuration not stated),inactive: 6.54%
18,NC(=O)N/N=C/c1coc2ccc3ccccc3c2c1=O,inactive: -27.7%
19,COc1ccc(S(=O)(=O)N2CCC(C(=O)NCc3ccccc3)CC2)cc1OC,inactive: 10.6%
20,CC(C)C(c1nnnn1C1CCCC1)N1CCC(C(N)=O)CC1 (configuration not stated),inactive: -5.94%
21,COc1cccc(CNc2nc(NCC3CC3)nc3ccsc23)c1OC,inactive: 8.65%
22,CCCOc1ccc(-c2nc3c(c(=O)[nH]c(=O)n3Cc3ccccc3)n2CCO)cc1OCC,inactive: 8.99%

row,Structure (SMILES),growth rescue (activation)
1,COc1ccc(Cn2c(C(C)C)nc3sc4ccccc4c(=O)c3c2=O)cc1,inactive: 18.8%
2,CC(C)(C)C(=O)NNC(=O)C1CC1(c1ccccc1)c1ccccc1 (configuration not stated),inactive: -0.532%
3,Cc1ccc(C(=O)OCc2cc(=O)n3ccsc3n2)s1,inactive: 18.1%
4,Cc1ccc(NC(=O)C2CC(=O)N(Cc3ccccc3)C2)cc1S(=O)(=O)N1CCCCCC1 (configuration not stated),inactive: 15.3%
5,COc1cc(/C=C/C(=O)O)cc(S(=O)(=O)Nc2cccc(SC)c2)c1OC,inactive: -3.06%
6,C/C(=N\NC(=O)c1ccc(Cl)cc1)c1ccccn1,inactive: -22.5%
7,CCCSc1ncc(Cl)c(C(=O)Nc2c(C(=O)Nc3ccc(OC)cc3)oc3ccccc23)n1,inactive: 2.74%
8,Cc1ccccc1NC(=O)COC(=O)[C@@H]1CCCN1C(=O)c1cccs1,inactive: 5.71%
9,COc1cc(CNc2nc(C)c([N+](=O)[O-])c(C)c2C#N)cc(OC)c1OC,inactive: 2.46%
10,CC1C(=O)NN=C1C(=O)N/N=C\C(Br)=C\c1ccccc1 (configuration not stated),inactive: 8.91%
11,CCc1nc2c(OC)cccn2c1N(C)C(=O)c1ccccc1F,inactive: 8.39%
12,COc1ccc(NC(=O)COC(=O)CN2C(=O)c3ccccc3C2=O)cc1,inactive: -2.58%
13,Cc1ccc(N(C(=O)c2csnn2)C(C(=O)NC(C)(C)C)c2cccnc2)cc1 (configuration not stated),inactive: 1.8%
14,COc1cc2c(cc1OC)/C(=C/C(=O)c1ccc(OC)c([N+](=O)[O-])c1)NCC2,inactive: -16.3%
15,CCCCCC1CC(/C(C)=N/NC(N)=O)OC1=O (configuration not stated),inactive: 16.1%
16,Cc1cc(C)n2c(SCC(C)C)nnc2n1,inactive: 19%
17,N=c1c(S(=O)(=O)c2ccccc2)cc2c(=O)n3ccccc3nc2n1C1CCCC1,inactive: -8.48%
18,COc1ccc(CCNS(=O)(=O)c2ccc(-n3cnnn3)cc2)cc1OC,inactive: -4.67%
19,Cc1ccc(C(=O)/C=C/N(C)C)o1,inactive: 26.3%
20,CCOc1ccc(CN(CCO)CCO)cc1C(=O)OC,inactive: 13.4%
21,Cc1cccc(NNC(=S)Nc2c(C)cccc2C)c1,inactive: -8.11%
22,CC1CCc2sc(NC(=O)C3CC(Cl)=CCC3C(=O)O)c(C#N)c2C1 (configuration not stated),inactive: 9.67%

row,Structure (SMILES),growth rescue (activation)
1,Cc1cc(NC(=O)c2ccc([N+](=O)[O-])cc2)n(CCC#N)n1,inactive: 8.82%
2,C=CCn1c(=O)c2ccccc2n2c(SC(C)C(N)=O)nnc12 (configuration not stated),inactive: 7.37%
3,O=C(Nc1ccc(F)c(Cl)c1)N1CCC2(CC1)Oc1ccccc1C(=O)N2Cc1ccccc1F,inactive: 2.31%
4,COc1ccc(S(=O)(=O)N2CCCN(C)CC2)cc1,inactive: 1.25%
5,CCN(Cc1ccccc1)C(=O)CN1C(=O)c2ccccc2C1=O,inactive: -10.4%
6,O=C(O)CCCn1cc(NC(=O)COc2ccccc2[N+](=O)[O-])cn1,inactive: -19.2%
7,CC(C)(Oc1ccc(Cl)cc1)C(=O)NCCN1C(=O)S/C(=C/c2cccnc2)C1=O,inactive: 5.67%
8,CC(C)c1ccccc1NC(=O)COc1ccc(C(=O)NCCc2ccccc2)cc1,inactive: 25%
9,O=C(CCCOc1ccc(Cl)cc1Cl)Nc1ccccn1,inactive: 13.7%
10,O=C(Nc1ccc(Br)cc1)Nc1ccccc1F,inactive: 23.6%
11,Cc1cc(C)cc(N2C(=O)CC(Cn3nc(C)cc3C)C2=O)c1 (configuration not stated),inactive: 4.22%
12,CC(C)c1ccc(NC(=O)CN2C(=O)NC3(CCCC3)C2=O)cc1,inactive: 5.38%
13,Cc1ccc(S(=O)(=O)Nc2ccc(N3CCN(C)CC3)nc2)cc1,inactive: -10.1%
14,Cc1[nH]c2ccccc2c1C(Nc1nccs1)c1ccncc1 (configuration not stated),inactive: 23.1%
15,O=C(COC(=O)c1ccco1)Nc1nc2c(F)c(F)c(F)cc2s1,inactive: -20.3%
16,O=C(Nc1nnc([C@H]2C[C@H](O)[C@@H](CO)O2)s1)Nc1cccc2c1CCCC2,inactive: 4.85%
17,Cc1ccc(-n2nc3ccc(NC(=O)COc4ccccc4)cc3n2)cc1Cl,inactive: 12.6%
18,CC(=O)Nc1ccc(S(=O)(=O)Nc2nccc(/C=C/c3ccc(Cl)cc3)n2)cc1,inactive: 11.5%
19,COc1ccccc1CCC(=O)NCCCn1ccc2ccccc21,inactive: 35.2%
20,COc1ccc(CN(C(=O)CCC(=O)Nc2cc(C)on2)C(C(=O)NC(C)(C)C)c2cccc(OC)c2OC)cc1 (configuration not stated),inactive: 10.8%
21,O=C(O)c1ccccc1C(=O)N1CCN(S(=O)(=O)c2cccc(C(F)(F)F)c2)CC1,inactive: 16%
22,NC(=O)Cn1cnc(-c2ccccc2)c1,inactive: 10.6%

row,Structure (SMILES),growth rescue (activation)
1,Cc1cccc(C(=O)N2CC(=O)Nc3ccc(F)cc3C2c2ccc(F)cc2)c1 (configuration not stated),inactive: 7.6%
2,CCOC(=O)c1c(NC(=O)COc2ccc(C)cc2C(C)(C)C)sc2c1CCC(C)C2 (configuration not stated),inactive: 7.2%
3,CCC[C@@H](NS(=O)(=O)c1ccc(C)cc1)C(=O)Oc1ccc2c3c(c(=O)oc2c1)CCC3,inactive: 15.2%
4,COc1ccc(Cl)cc1-c1nc(SCC(=O)N(C)C2CCS(=O)(=O)C2)n[nH]1 (configuration not stated),inactive: 21.6%
5,COc1cccc2cc(C(C)N(CCCN3CCOCC3)C(=S)Nc3cccc(C)c3)oc12 (configuration not stated),inactive: -19.9%
6,Cn1c(N)c(N2CCCCC2)c(=O)n(CC(=O)Nc2cccc(C#N)c2)c1=O,inactive: 1.81%
7,Cc1cc(NC(=O)C2Oc3ccccc3OC2C)no1 (configuration not stated),inactive: -5.03%
8,Cc1ccc(-n2c(=O)c3sccc3n(CC(=O)NC3CCCC3)c2=O)cc1,inactive: -14.4%
9,Cn1nc(C(C)(C)C)cc1C(=O)N1CCCCC1c1cc(C(=O)Nc2ccc3c(c2)OCO3)no1 (configuration not stated),inactive: 15.1%
10,O=C(CSc1nncn1-c1cccnc1)N(c1ccccc1)c1ccccc1,inactive: -7.61%
11,Cc1cc(NCc2ccco2)n2c(nc3ccccc32)c1C#N,inactive: -6.61%
12,CCCCN1C(=O)c2ccc(C(=O)OCC(=O)NCCc3ccc(S(N)(=O)=O)cc3)cc2C1=O,inactive: 13.7%
13,COCCCNC(=O)C(C#N)c1nc2ccccc2nc1N1CCCC1 (configuration not stated),inactive: 8.89%
14,Cc1ccc(-c2ccc(C(=O)NCCCNC(=O)c3cnccn3)o2)cc1Cl,inactive: 29.4%
15,Cc1ccc(S(=O)(=O)NN2C(=O)c3ccccc3NC2C)cc1 (configuration not stated),inactive: 8.11%
16,CCOC(=O)c1c(-c2ccc(-c3ccccc3)cc2)csc1NC(=O)CNCCN(C)C,inactive: -32.1%
17,Cn1cc(C(=O)N/N=C/c2ccc3c(c2)OCO3)c2ccccc21,inactive: 10.9%
18,CCOC(=O)Cn1ncn(-c2ccc(OC(F)(F)F)cc2)c1=O,inactive: -1.67%
19,O=C(NC12CC3CC(CC(C3)C1)C2)c1ccccc1,inactive: 22.5%
